This is one part of the list. Interaction screen of human proteins with wild-type SARS-CoV-2 proteins by split-DHFR complementation in yeast, 1 µg/mL methotrexate. Value = fitness of the pair (three or more lineages) minus that of the viral protein without a human partner, on a scale set by negative (0) and fused positive (1) controls, mean of up to three cultures; higher = more likely to interact. Active = false discovery rate below 0.05 (one-sided t-test) in at least one culture. Nearly all pairs are not hits, and differences among them are mostly noise (correlation between cultures about 0.3); most hits were seen in one culture only. Human sequences are the Swiss-Prot entries looked up by gene name; the clone may be another isoform. NSP2 values were corrected by the authors for a growth advantage. Listed are human proteins with a hit and a random twelfth of the others.
Tests used:
Assay in all cases: yeast fitness gain over the viral ORF with no human partner (scaled fitness); higher = more likely to interact
[1] = biological target: SARS-CoV-2 M
Method: (§1)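 Split mouse DHFR complementation in pooled diploid yeast: human ORFeome clones carry one fragment and viral ORFs the other; barcoded lineages compete in 1 µg/mL methotrexate and fitness is read by barcode sequencing in up to three cultures.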

[2] = biological target: SARS-CoV-2 N
Method: as §1

[3] = biological target: SARS-CoV-2 NSP12
Method: as §1

[4] = biological target: SARS-CoV-2 NSP13
Method: as §1

[5] = biological target: SARS-CoV-2 NSP14
Method: as §1

[6] = biological target: SARS-CoV-2 NSP15
Method: as §1

[7] = biological target: SARS-CoV-2 NSP2
Method: as §1

[8] = biological target: SARS-CoV-2 NSP4
Method: as §1

[9] = biological target: SARS-CoV-2 NSP5
Method: as §1

[10] = biological target: SARS-CoV-2 NSP6
Method: as §1

[11] = biological target: SARS-CoV-2 NSP7
Method: as §1

[12] = biological target: SARS-CoV-2 NSP8
Method: as §1

[13] = biological target: SARS-CoV-2 ORF10
Method: as §1

[14] = biological target: SARS-CoV-2 ORF3B
Method: as §1

[15] = biological target: SARS-CoV-2 ORF6
Method: as §1

[16] = biological target: SARS-CoV-2 ORF7A
Method: as §1

[17] = biological target: SARS-CoV-2 ORF7B
Method: as §1

[18] = biological target: SARS-CoV-2 ORF8
Method: as §1

[19] = biological target: SARS-CoV-2 ORF9B
Method: as §1

[20] = biological target: SARS-CoV-2 ORF9Bwu (the 73-codon ORF)
Method: as §1

[21] = biological target: SARS-CoV-2 S
Method: as §1

[22] = biological target: SARS-CoV-2 NSP1
Method: as §1

[23] = biological target: SARS-CoV-2 NSP10
Method: as §1

[24] = biological target: SARS-CoV-2 NSP9
Method: as §1

[25] = biological target: SARS-CoV-2 ORF3A
Method: as §1

[26] = biological target: SARS-CoV-2 NSP16
Method: as §1

Measured: yeast fitness gain

B1: FIBP, O43427 (protein)
chain: MTSELDIFVGNTTLIDEDVYRLWLDGYSVTDAVALRVRSGILEQTGATAAVLQSDTMDHYRTFHMLERLLHAPPKLLHQLIFQIPPSRQALLIERYYAFDEAFVREVLGKKLSKGTKKDLDDISTKTGITLKSCRRQFDNFKRVFKVVEEMRGSLVDNIQQHFLLSDRLARDYAAIVFFANNRFETGKKKLQYLSFGDFAFCAELMIQNWTLGAVGEAPTDPDSQMDDMDMDLDKEFLQDLKELKVLVADKDLLDLHKSLVCTALRGKLGVFSEMEANFKNLSRGLVNVAAKLTHNKDVRDLFVDLVEKFVEPCRSDHWPLSDVRFFLNQYSASVHSLDGFRHQALWDRYMGTLRGCLLRLYHD
inactive: [1] 0.0251 | [2] 0.0349 | [3] -0.0433 | [4] 0.00923 | [5] -0.102 | [6] 0.0779 | [7] -0.16 | [8] -0.041 | [9] 0.101 | [10] -0.168 | [11] -0.0327 | [12] -0.0572 | [13] 0.0527 | [14] 0.0947 | [15] 0.0406 | [16] 0.074 | [17] 0.103 | [18] 0.0113 | [19] 0.0249 | [20] 0.127 | [21] 0.0856

B2: CCDC96, Q2M329 (protein)
chain: MDVSSEHTKDPGGEGGDGESLAARPSKIKASSGPPTSPEPGELESEPEEEEEEQAASQGGTAADEQAEAPKGLTAAEAAGEEGPGEPGRPAEPQPEPEEPAEVGAEEPAQPEPGAGPEELEAEAGAEELEQAAEGKEVRFQASLPLTRIDEEEAAAAPEAETERVEGEEEDKEETQRDGAESKERDGEGRPAKSQEEGKRLYGRDEFEDLEWSEEVQKLQEQQLRSDLLDQYRSLLVERNRSQRYNLYLQHKIFEALRRKKGLEAAEVADRGAEAEAPEKEQAYLRHLGMLEELKKQQADDLQWYHQELGQLKRQCQEKLTRVEKEWRRFQALKKQVVMQAMGSCRMRGGRQAALREVEQIQALEDKKEKEMSAVRLENIQLKQSLVHFETRMRTQEDLTQGLLLIDFEQLKIENQTFNEKIEERNEELLKLRSKVTNSVQVITHVKEKLHFMDMENACKKTQLAEIEAQAALGRDILTKTKQAREGLRTDNIRLNQKCGLLGKDSLLRDLEEKVDKTELLHRRLESLKRHHASLTLSCRGVRQKIREAKAFLPS
inactive: [1] 0.0279 | [2] 0.0624 | [22] -0.0934 | [23] 0.0238 | [11] 0.00443 | [12] -0.0699 | [24] -0.0107 | [25] -0.0504 | [14] 0.0194 | [20] -0.032

B3: SPIN2B, Q9BPZ2 (protein)
chain: MKTPNAQEAEGQQTRAAAGRATGSANMTKKKVSQKKQRGRPSSQPRRNIVGCRISHGWKEGDEPITQWKGTVLDQVPINPSLYLVKYDGIDCVYGLELHRDERVLSLKILSDRVASSHISDANLANTIIGKAVEHMFEGEHGSKDEWRGMVLAQAPIMKAWFYITYEKDPVLYMYQLLDDYKEGDLRIMPESSESPPTEREPGGVVDGLIGKHVEYTKEDGSKRIGMVIHQVEAKPSVYFIKFDDDFHIYVYDLVKKS
inactive: [1] -0.0331 | [3] 0.0767 | [4] -0.0429 | [26] -0.0561 | [15] -0.141 | [19] 0.0836

B4: GBAS, O75323 (protein)
chain: MAARVLRARGAAWAGGLLQRAAPCSLLPRLRTWTSSSNRSREDSWLKSLFVRKVDPRKDAHSNLLAKKETSNLYKLQFHNVKPECLEAYNKICQEVLPKIHEDKHYPCTLVGTWNTWYGEQDQAVHLWRYEGGYPALTEVMNKLRENKEFLEFRKARSDMLLSRKNQLLLEFSFWNEPVPRSGPNIYELRSYQLRPGTMIEWGNYWARAIRFRQDGNEAVGGFFSQIGQLYMVHHLWAYRDLQTREDIRNAAWHKHGWEELVYYTVPLIQEMESRIMIPLKTSPLQ
inactive: [1] 0.0109 | [22] -0.0583 | [23] 0.0581 | [3] -0.0743 | [4] 0.0703 | [6] -0.0762 | [26] -0.129 | [7] -0.0645 | [8] -0.268 | [9] -0.0608 | [10] -0.135 | [11] 0.0249 | [12] -0.061 | [24] -0.0141 | [13] -0.0211 | [25] 0.0476 | [14] 0.00182 | [15] -1.7e-05 | [16] 0.00169 | [17] -0.0796 | [18] 0.0557 | [19] 0.0525 | [20] 0.0547 | [21] -0.00227

B5: DEFB121, Q5J5C9 (protein)
chain: MKLLLLLLTVTLLLAQVTPVMKCWGKSGRCRTTCKESEVYYILCKTEAKCCVDPKYVPVKPKLTDTNTSLESTSAV
inactive: [1] -0.211 | [2] 0.0554 | [22] -0.0302 | [23] -0.0415 | [3] 0.0586 | [4] -0.0192 | [7] -0.224 | [10] 0.0139 | [11] 0.0604 | [13] 0.0338 | [25] -0.00923 | [14] -0.0671 | [15] -0.0113 | [16] -0.0337 | [17] 0.0193 | [18] 0.0198 | [19] 0.000484 | [20] 0.155 | [21] 0.00969

B6: S100A13, Q99584 (protein)
chain: MAAEPLTELEESIETVVTTFFTFARQEGRKDSLSVNEFKELVTQQLPHLLKDVGSLDEKMKSLDVNQDSELKFNEYWRLIGELAKEIRKKKDLKIRKK
inactive: [1] -0.0219 | [2] -0.081 | [23] -0.0072 | [3] -0.236 | [4] -0.0303 | [26] 0.0592 | [7] 0.0393 | [9] -0.0501 | [11] -0.123 | [12] -0.0401 | [13] 0.0138 | [14] 0.0808 | [15] -0.0193 | [16] 0.0202 | [17] 0.102 | [18] -0.0397 | [19] -0.0795 | [20] 0.0627 | [21] -0.0758

B7: HTN3, P15516 (protein)
chain: MKFFVFALILALMLSMTGADSHAKRHHGYKRKFHEKHHSHRGYRSNYLYDN
inactive: [1] -0.00678 | [22] -0.00997 | [23] 0.0831 | [3] -0.115 | [4] 0.0299 | [5] 0.147 | [26] -0.0538 | [7] -0.158 | [8] -0.107 | [9] -0.0716 | [12] -0.0323 | [13] -0.0464 | [25] 0.113 | [14] 0.011 | [15] -0.0118 | [16] 0.025 | [18] -0.017 | [19] 0.0684 | [21] -0.0214

B8: TRIM39, Q9HCM9 (protein)
chain: MAETSLLEAGASAASTAAALENLQVEASCSVCLEYLKEPVIIECGHNFCKACITRWWEDLERDFPCPVCRKTSRYRSLRPNRQLGSMVEIAKQLQAVKRKIRDESLCPQHHEALSLFCYEDQEAVCLICAISHTHRAHTVVPLDDATQEYKEKLQKCLEPLEQKLQEITRCKSSEEKKPGELKRLVESRRQQILREFEELHRRLDEEQQVLLSRLEEEEQDILQRLRENAAHLGDKRRDLAHLAAEVEGKCLQSGFEMLKDVKSTLEKNIPRKFGGSLSTICPRDHKALLGLVKEINRCEKVKTMEVTSVSIELEKNFSNFPRQYFALRKILKQLIADVTLDPETAHPNLVLSEDRKSVKFVETRLRDLPDTPRRFTFYPCVLATEGFTSGRHYWEVEVGDKTHWAVGVCRDSVSRKGELTPLPETGYWRVRLWNGDKYAATTTPFTPLHIKVKPKRVGIFLDYEAGTLSFYNVTDRSHIYTFTDTFTEKLWPLFYPGIRAGRKNAAPLTIRPPTDWE
inactive: [1] -0.00245 | [6] 0.0118 | [26] -0.0748 | [11] -0.131 | [12] -0.0144 | [25] -0.17 | [16] -0.0618 | [20] -0.00321

B9: E4F1, Q66K89 (protein)
chain: MEGAMAVRVTAAHTAEAQAEAGREAGEGAVAAVAAALAPSGFLGLPAPFSEEDEDDVHRCGRCQAEFTALEDFVQHKIQKACQRAPPEALPATPATTALLGQEVVPAAPGPEEPITVAHIVVEAASLAADISHASDLVGGGHIKEVIVAAEAELGDGEMAEAPGSPRQQGLGLAGEGEQAQVKLLVNKDGRYVCALCHKTFKTGSILKAHMVTHSSRKDHECKLCGASFRTKGSLIRHHRRHTDERPYKCSKCGKSFRESGALTRHLKSLTPCTEKIRFSVSKDVVVSKEDARAGSGAGAAGLGTATSSVTGEPIETSPVIHLVTDAKGTVIHEVHVQMQELSLGMKALAPEPPVSQELPCSSEGSRENLLHQAMQNSGIVLERAAGEEGALEPAPAAGSSPQPLAVAAPQLPVLEVQPLETQVASEASAVPRTHPCPQCSETFPTAATLEAHKRGHTGPRPFACAQCGKAFPKAYLLKKHQEVHVRERRFRCGDCGKLYKTIAHVRGHRRVHSDERPYPCPKCGKRYKTKNAQQVHFRTHLEEKPHVCQFCSRGFREKGSLVRHVRHHTGEKPFKCYKCGRGFAEHGTLNRHLRTKGGCLLEVEELLVSEDSPAAATTVLTEDPHTVLVEFSSVVADTQEYIIEATADDAETSEATEIIEGTQTEVDSHIMKVVQQIVHQASAGHQIIVQNVTMDEETALGPEAAAADTITIATPESLTEQVAMTLASAISEGTVLAARAGTSGTEQATVTMVSSEDIEILEHAGELVIASPEGQLEVQTVIV
inactive: [1] 0.00969 | [22] 0.00343 | [23] 0.0449 | [3] -0.0168 | [4] 0.0109 | [5] 0.0825 | [6] 0.0157 | [26] -0.0337 | [7] -0.175 | [9] -0.0441 | [10] -0.0421 | [11] 0.0576 | [12] 0.0639 | [24] -0.0276 | [13] -0.0708 | [25] -0.0498 | [14] 0.0772 | [15] 0.00811 | [16] 0.0673 | [17] 0.0738 | [18] -0.0985 | [19] 0.00927 | [20] -0.174 | [21] -0.0978
